The other results are listed elsewhere or left out. Further columns of the screen follow, without active or inactive calls.

The text below walks through data of PubChem BioAssay AID1745853 (National Center for Advancing Translational Sciences (NCATS), 2022).

Common to all, as to test: Primary Screen for Target Class Profiling of Small Molecule Inhibitors of Methyltransferases
Experiment [1] concerns the target Glycine N-methyltransferase (Homo sapiens) (UniProt Q14749). The settings on record: purified enzyme, MTase-Glo SAH luminescence; measured here: GNMT inhibition; at 40 µM; stronger effect = lower value. The procedure, abridged:
(§1)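 Each enzyme was assayed with SAM and its substrate. SAH formation detected by MTase-Glo luminescence; single-point 40 uM screen[…].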

Experiment [2] has as its target Guanidinoacetate N-methyltransferase (Homo sapiens) (UniProt Q14353). The note with it: purified enzyme, MTase-Glo SAH luminescence; measured here: GAMT inhibition; at 40 µM; stronger effect = lower value. Summed up:
as §1

Experiment [3] concerns the target Histamine N-methyltransferase (Homo sapiens) (UniProt P50135). The note with it: purified enzyme, MTase-Glo SAH luminescence; measured here: HNMT inhibition; at 40 µM; stronger effect = lower value. The procedure, abridged:
as §1

Experiment [4] addresses Nicotinamide N-methyltransferase (Homo sapiens) (UniProt P40261). The note with it: purified enzyme, MTase-Glo SAH luminescence; measured here: NNMT inhibition; at 40 µM; stronger effect = lower value. The procedure, abridged:
as §1

In experiment [5] the target is Phenylethanolamine N-methyltransferase (Homo sapiens) (UniProt P11086). The settings on record: purified enzyme, MTase-Glo SAH luminescence; measured here: PNMT inhibition; at 40 µM; stronger effect = lower value. Summed up:
as §1
% is scaled to controls: 0 for no effect and ±100 for the full control effect.

In the case of `OC[C@H]1O[C@@H](OCCc2ccccc2)[C@H](O[C@@H]2OC[C@@H](O)[C@H](O)[C@H]2O)[C@@H](O)[C@@H]1O`, the activity change, negative = inhibition was -5.62% in experiment [1]; 2.17% in experiment [2]; 4.17% in experiment [3]; -8.76% in experiment [4]; 6.36% in experiment [5].

Consider `CC1(C(=O)NC2CCCCC2)Cn2c(nc3ccccc32)C(=O)N1Cc1cccc(Br)c1` (stereo not given), for which the activity change, negative = inhibition is 1.11% in experiment [1]; 0.109% in experiment [2]; -0.997% in experiment [3]; -0.076% in experiment [4]; -4.02% in experiment [5].

On to `Cc1ccccc1N1C(=O)c2cc(C3CC3)nn2CC1(C)C(=O)NC1CCCCCC1` (stereo not given), for which the activity change, negative = inhibition was -1.26% in experiment [1]; 0.28% in experiment [2]; 3.39% in experiment [3]; 4.2% in experiment [4]; -1.77% in experiment [5].

Turning to `CCOC(=O)COc1ccc2c(c1)C[C@@H](NC[C@H](O)c1cccc(Cl)c1)CC2`, the activity change, negative = inhibition in experiment [1] was 0.695%; in experiment [2] it was 15.9%; in experiment [3], 7.74%; in experiment [4], -4.11%; in experiment [5], -0.409%.

For the molecule `CCc1ccc(CNc2ncncc2-c2nc(-c3ccccc3)no2)cc1`, the activity change, negative = inhibition in experiment [1] was -1.55%; in experiment [2], 2.48%; in experiment [3], 0.784%; in experiment [4], -3.71%; in experiment [5], 11.1%.

Consider `CC(=O)Nc1cc(-c2cc(C(=O)NCc3cccnc3)c3c(c2)N(C)CCO3)ccn1`, for which the activity change, negative = inhibition in experiment [1] is -62.5%; in experiment [2], -44.1%; in experiment [3], -68.9%; in experiment [4] it was -42.9%; in experiment [5], -28.8%.

`COc1ccc(Cn2c(=O)c3ccccc3n3c(-c4cccc(Cl)c4)nnc23)cc1`: the activity change, negative = inhibition in experiment [1] is 1.08%; in experiment [2], 2.67%; in experiment [3], 8.11%; in experiment [4], 6.2%; in experiment [5], 1.54%.

For `COc1ccc(NC(=O)c2nc3sccn3c2-c2ccncc2)cc1`, the activity change, negative = inhibition in experiment [1] was -6.74%; in experiment [2], -0.25%; in experiment [3] it was 1.58%; in experiment [4] it was -2.42%; in experiment [5], 8.54%.

For `CC(=O)Nc1c2n(c3ccc(F)cc13)CC(C)(C(=O)NC1CCCCC1)N(Cc1ccco1)C2=O` (stereo not given), the activity change, negative = inhibition in experiment [1] is -10.5%; in experiment [2] it was -1.8%; in experiment [3] it was 0.864%; in experiment [4], -6.05%; in experiment [5] it was -6.65%.

Turning to `O=C(Nc1ccc(-n2nc(C(F)(F)F)cc2C(F)(F)F)cc1)c1ccncc1F`, the activity change, negative = inhibition in experiment [1] was found to be 6.42%; in experiment [2], 17.1%; in experiment [3] it was 11.2%; in experiment [4] it was 2.39%; in experiment [5], 8.93%.

As for `COc1ccc(Cl)cc1Nc1ncncc1-c1nc(-c2ccccc2)no1`, the activity change, negative = inhibition in experiment [1] is -2.62%; in experiment [2], 2.82%; in experiment [3] it was -1.54%; in experiment [4], -1.15%; in experiment [5], -0.771%.

As for `CC(CCC1(O)OC2CC3C4CC=C5C[C@@H](O[C@@H]6O[C@H](CO)[C@@H](O[C@@H]7O[C@@H](C)[C@H](O)[C@@H](O)[C@H]7O)[C@H](O)[C@H]6O[C@@H]6O[C@@H](C)[C@H](O)[C@@H](O)[C@H]6O)CC[C@]5(C)C4CC[C@]3(C)[C@@]2(O)[C@@H]1C)CO[C@@H]1O[C@H](CO)[C@@H](O)[C@H](O)[C@H]1O` (stereo not given in full), the activity change, negative = inhibition in experiment [1] was 5.87%; in experiment [2], 5.64%; in experiment [3] it was 15.3%; in experiment [4], -8%; in experiment [5], 9.04%.

Take `Cc1cccc(N2CCN(S(=O)(=O)c3cc4[nH]c(=O)[nH]c4cc3Cl)CC2)c1C`: the activity change, negative = inhibition in experiment [1] is -4.35%; in experiment [2], 3.63%; in experiment [3], -3.35%; in experiment [4], -3.88%; in experiment [5], -2.87%.

As to `Cc1ccc(CN2CCC3(CC2)CN(c2ncccn2)CC3CO)cc1C` (stereo not given), the activity change, negative = inhibition in experiment [1] was -6.29%; in experiment [2], -3.76%; in experiment [3], -7.85%; in experiment [4], -9.29%; in experiment [5], -4.55%.

Take `Cc1cnc(-c2cccnc2)n1C1CCN(S(=O)(=O)c2ccc3c(c2)OCCO3)CC1`: the activity change, negative = inhibition is -6.41% in experiment [1]; 0% in experiment [2]; -1.76% in experiment [3]; -11.9% in experiment [4]; -3.4% in experiment [5].

With `COc1ccccc1CNC(=O)C1(C)Cn2cnc(C(=O)NCc3cccc(C)c3)c2C(=O)N1C1CC1` (stereo not given), the activity change, negative = inhibition is -11.7% in experiment [1]; -3.09% in experiment [2]; -11.7% in experiment [3]; -11.6% in experiment [4]; -11.1% in experiment [5].

On to `CCCN1CCn2c3c(c4cc(OC)ccc42)CCN=C31`, for which the activity change, negative = inhibition in experiment [1] was 1.14%; in experiment [2], 4.57%; in experiment [3], -47.4%; in experiment [4] it was 4.51%; in experiment [5] it was -1.25%.

Consider `CN1CCN(C(=O)[C@@H]2CCC[C@@H](NCc3cnn(C)c3)CN(C)C(=O)C2)CC1`, for which the activity change, negative = inhibition is -5.18% in experiment [1]; -16.1% in experiment [2]; -3.54% in experiment [3]; -15.5% in experiment [4]; -10.7% in experiment [5].

For `CN(C)Cc1nnc(C2CC(NC(=O)Cc3c[nH]c(=O)n(C)c3=O)C2)n1C` (stereo not given), the activity change, negative = inhibition was -5.15% in experiment [1]; -9.8% in experiment [2]; -3.08% in experiment [3]; -9.32% in experiment [4]; 4.31% in experiment [5].

Turning to `O=C(CCn1ccc2cc(S(=O)(=O)N3CCCC3)ccc21)NCCc1ccco1`, the activity change, negative = inhibition in experiment [1] is 2.33%; in experiment [2], 3.3%; in experiment [3], 5.13%; in experiment [4], -0.332%; in experiment [5] it was 2.3%.
